From patent CN115322259A (dated 2022)

Columns and labels:
[1] = target: T1, 人源PD-1 (human, UniProt Q15116 25-288); assay: cell-based or functional assay
[2] = target: T1, 人源PD-1; assay: cell-based or functional assay; remark: listed apart in the source
[3] = target: T2, 人源TGFβ1蛋白(Sinobiological，10804-H08H) (human, UniProt P01137 30-390); assay: ELISA as in example 5, human TGFβ1 coated
T2 construct: Coated at 2 μg/mL on the ELISA plate

[4] = target: T2, 人源TGFβ1蛋白(Sinobiological，10804-H08H); assay: ELISA, human TGFβ1 coated at 2 μg/mL, HRP goat anti-human IgG
T2 sequence (P01137 30-390 limits assumed): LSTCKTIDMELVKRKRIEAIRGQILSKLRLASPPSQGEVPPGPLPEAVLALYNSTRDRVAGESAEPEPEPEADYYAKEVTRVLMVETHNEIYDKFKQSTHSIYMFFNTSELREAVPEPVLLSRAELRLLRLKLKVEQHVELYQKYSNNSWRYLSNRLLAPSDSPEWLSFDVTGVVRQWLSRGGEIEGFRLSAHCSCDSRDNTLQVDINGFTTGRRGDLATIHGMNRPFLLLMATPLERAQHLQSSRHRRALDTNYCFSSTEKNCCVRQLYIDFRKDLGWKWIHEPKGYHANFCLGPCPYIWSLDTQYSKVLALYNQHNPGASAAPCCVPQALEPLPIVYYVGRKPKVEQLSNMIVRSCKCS

T1 sequence (Q15116 25-288): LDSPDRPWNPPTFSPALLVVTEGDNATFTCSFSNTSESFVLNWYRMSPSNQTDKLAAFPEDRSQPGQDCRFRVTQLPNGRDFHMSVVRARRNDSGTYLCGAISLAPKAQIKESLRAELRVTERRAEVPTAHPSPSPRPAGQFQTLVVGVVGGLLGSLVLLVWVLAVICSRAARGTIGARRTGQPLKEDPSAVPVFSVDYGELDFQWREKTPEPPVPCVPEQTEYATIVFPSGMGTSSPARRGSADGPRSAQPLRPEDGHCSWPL

EC50值(ng/mL), 报告基因法 PD-1端生物学活性 [1]: 158 ng/mL
EC50值(ng/mL), 报告基因法 PD-1端生物学活性 [2]: 282 ng/mL
EC50 [3]: 0.0617 µg/mL
EC50 [4]: 0.398 nM
B1: PD1/TGFβRII融合蛋白 (other)
heavy: EVQLVESGGGLVQPGGSLRLSCAASGFAFSSYDMSWVRQAPGKGLDWVATISGGGRYTYYPDSVKGRFTISRDNSKNNLYLQMNSLRAEDTALYYCANRYGEAWFAYWGQGTLVTVSSASTKGPSVFPLAPSSKSTSGGTAALGCLVKDYFPEPVTVSWNSGALTSGVHTFPAVLQSSGLYSLSSVVTVPSSSLGTQTYICNVNHKPSNTKVDKKV[sequence of human IgG1 Fc with L234A L235A G237A (EU numbers) not given]AGGGGSGGGGSGGGGSGGGGSGIPPHVQKSVNNDMIVTDNNGAVKFPQLCKFCDVRFSTCDNQKSCMSNCSITSICEKPQEVCVAVWRKNDENITLETVCHDPKLPYHDFILEDAASPKCIMKEKKKPGETFFMCSCSSDECNDNIIFSEEYNTSNPD
light: DIQMTQSPSSMSASVGDRVTFTCRASQDINTYLSWFQQKPGKSPKTLIYRANRLVSGVPSRFSGSGSGQDYTLTISSLQPEDMATYYCLQYDEFPLTFGAGTKLELKRTVAAPSVFIFPPSDEQLKSGTASVVCLLNNFYPREAKVQWKVDNALQSGNSQESVTEQDSKDSTYSLSSTLTLSKADYEKHKVYACEVTHQGLSSPVTKSFNRGEC
notes: Made in CHO cells; also called PD-1/TGFβ双功能蛋白

Like-named read-outs stand apart in the source and are kept apart here.
